Experimental data as given in article PMC12040169 (PLOS Biology, 2025).
The other results are listed elsewhere or left out.

System: T1, C. trachomatis L2/434/Bu expressing GFP (CTL2-GFP)
T1 construct: L2/434/Bu GFP intracellular growth in HeLa cells
Design: species or system HeLa; C. trachomatis total inclusion area by high-content imaging, normalised to DMSO
Conditions: total inclusion area; 28.5 h, 10 µM; inhibitor
Method in brief: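 High-content images of fixed, Hoechst-stained infected cultures supply inclusion area and count (growth) plus nuclei number (viability), complementing bulk GFP/resorufin fluorescence. MIC determination is unchanged from the primary assay.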

Compound	% of control remaining
O=C(CNC(=O)C1CCCCC1)NNC(=O)c1ccccc1Br [CBK267828]	112.074
CCn1nc(C2CCCC2)nc1-c1cnc2ccnn2c1C [CBK306626]	101.894
COC(=O)c1c(NC(=O)CC2Sc3ccccc3NC2=O)sc(C)c1C (stereo not shown) [CBK264429]	123.562
O=C1COc2ccccc2C/C=C/CC2(CCN(C(=O)Cc3cccnc3)CC2)C(=O)NCCN1 [CBK292153]	84.706
O=C(CSc1nnc(-c2cccc(Br)c2)o1)Nc1cccc([N+](=O)[O-])c1 [CBK264212]	92.2104
CC12CC(NC(=O)N1c1ccc(C(=O)O)cc1)c1ccccc1O2 (stereo not shown) [CBK287226]	85.2084
COc1cccc(-c2ccc3c(c2)[nH]c(=O)n3C2CCN(C(=O)c3ccc(C)c(OC)c3)CC2)c1 [CBK153141]	92.0125
Cc1cc(C)cc(N(C(C)C(=O)Nc2ccccc2-c2ccccc2)S(C)(=O)=O)c1 (stereo not shown) [CBK268770]	99.7367
COc1ccc2[nH]c(=O)c(CN(CCN(C)C)C(=S)Nc3ccc(F)cc3)cc2c1 [CBK135011]	61.9528
O=C(NCCc1c[nH]c2ccc(Cl)cc12)c1ccc(Cl)cc1Cl [CBK159750]	12.7942
CC1CCCCC1NC(=O)Cn1ncn2c(cc3ccsc32)c1=O (stereo not shown) [CBK284196]	87.7524
O=C1c2ccccc2C(=O)N1CCc1nn2c(-c3cccnc3)nnc2s1 [CBK269793]	88.6052
CC(C)Oc1cccc(C(=O)Nc2ccc(N3CCN(C(=O)C(C)(C)C)CC3)cc2)c1 [CBK270280]	70.3178
Cc1nc(C)c(C(=O)N2CCN(Cc3ccccc3)CC2)s1 [CBK200177]	84.5333
CCOc1cc(CNCCO)c(Cl)cc1OC [CBK269309C]	131.124
CC(C)c1cc(C(=O)NC(C)(C)CN2CCCCC2C)n(C)n1 (stereo not shown) [CBK282644]	111.078
Nn1c(SCc2cc(=O)[nH]c3ccccc23)nnc1C(O)c1ccccc1 (stereo not shown) [CBK268405]	79.6655
CN(C)c1cccc(-c2cncc(Nc3ccc(Cl)cc3)n2)c1 [CBK065738]	67.465
CCC(C)(C)C(=O)Nc1ccc(Cl)nc1 [CBK091334]	87.4424
Cn1c(=O)n(C)c2cc(NC(=O)CN(c3ccccc3)S(C)(=O)=O)ccc21 [CBK270094]	74.2288
Cc1nc2cc(NC(=O)Cc3c(C)nc4ccccc4c3C)ccc2o1 [CBK297083]	98.1257
COc1ccc(C2CC(=O)C(=CNCCN3CCN(C(=O)c4ccccc4)CC3)C(=O)C2)cc1 (stereo not shown) [CBK264762]	102.31
CCNS(=O)(=O)c1ccc2c(c1)N(Cc1nc(C)c(C)o1)CC2 [CBK305189]	17.5954
Cc1cccc(CCN2CCC3(CC2)NCCc2c3[nH]c3ccc(Br)cc23)c1 [CBK039280]	58.6022
Cc1c(C(C)NCC(O)c2ccncc2)cnn1-c1ccc(C#N)cc1 (stereo not shown) [CBK305403]	84.0182

Compound	% of control remaining
O=C(CCN1C(=O)c2ccc([N+](=O)[O-])cc2C1=O)Nc1ccccc1-c1ccccc1 [CBK265134]	74.8945
COc1ccc(Oc2nccnc2N2CCN(Cc3ccc(Cl)c(Cl)c3)CC2)cc1OC [CBK083038T]	69.8212
Cc1ccccc1NC(=O)Cn1cnc2c(cnn2-c2ccccc2)c1=O [CBK287530]	80.4508
COc1ccc(-c2cnn(-c3cncnc3)n2)cc1 [CBK112763]	82.4459
CCOc1ccccc1NC(=O)NCCSCc1ccco1 [CBK057501]	93.5997
CCC(O)CNS(=O)(=O)c1ccc(C(C)C)cc1 (stereo not shown) [CBK043543]	78.4609
Fc1ccc([C@@H]2CN(Cc3cccnc3)C[C@H]2c2cc[nH]n2)cc1 [CBK283054]	90.6369
O=C(c1cnoc1-c1ccc([N+](=O)[O-])cc1)N1CCCC1 [CBK153846]	81.5801
COc1ccc(-c2nc(NCc3ccccc3)n(C(=O)c3ccc([N+](=O)[O-])cc3)n2)cc1 [CBK268265]	113.794
O=C(Nc1ccc2ncccc2c1)c1cnc(-c2cccc(C(F)(F)F)c2)c(-c2cccnc2)c1 [CBK037591]	112.513
CC(C)c1ccc2c(c1)C(N1CCN(C)CC1)Cc1cccnc1S2 (stereo not shown) [CBK026244G]	64.2604
c1ccc([C@@H]2CN(Cc3ccncc3)C[C@H]2c2cc[nH]n2)cc1 [CBK285161]	85.7203
Nc1ncc(-c2ccco2)nc1-c1ccc(C=O)cc1 [CBK064095]	124.229
COc1ccccc1C(=O)N1CCC(Cc2cccc(-c3cccs3)c2)(C(N)=O)CC1 [CBK285742]	98.4942
CN1CCN(c2ccc(-c3cncc(NC4CCOCC4)n3)cn2)CC1 [CBK037229]	117.694
CCN(Cc1ccc(C#N)cc1F)C(=O)NC(C)c1cnn(C)c1C (stereo not shown) [CBK305643]	75.8903
O=S(=O)(c1ccc(C(F)(F)F)cc1)c1ccc2nccc(N3CCNCC3)c2c1 [CBK200016C]	90.9012
CNC(=O)c1cccc(NC(=O)c2cc(-c3ccc(O)cc3)cnc2N(C)C)c1 [CBK106397]	97.2155
O=C(N/N=C/c1cc([N+](=O)[O-])ccc1Cl)c1ccc(O)c(O)c1 [CBK261599]	78.108
Cc1ccc(NC(=O)c2cnc3ccccc3n2)c(C)n1 [CBK200218]	86.1317
O=C(Nc1nnc(-c2ccco2)o1)c1cccc(C(F)(F)F)c1 [CBK287422]	103.626
CNC(=O)C1(Cc2ccc(-c3ccccc3)cc2)CCN(C(=O)CCc2ccccc2)CC1 [CBK285765]	99.7657
C=CCOc1c(CNc2cccc(C(=O)O)c2)cccc1OC [CBK074432]	77.7004
O=C1CCC[C@]2(CN(C(=O)C3CC3)C[C@H]2c2ccc(F)c(F)c2)N1 [CBK283364]	77.048
